Results published in the supplement of paper PMC7125110.
± gives the standard error. This sample is rich in variants without activity.

B1: glmS ribozyme (parent)
chain: AUAAAAGCGCCAGAACUACAGAAAUGUAGUUGACGAGGAGGAGGUUUAUCGAAUUUUCGGCGGAUGCCUCCAAA

Legend:
Settings in all cases: with glucosamine-6-phosphate
[1] = variants of: B1; experiment: self-cleavage kobs at 640 uM GlcN6P; higher = faster cleavage; RNA array
Procedure, shortened: (§1)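 In situ transcription by E. coli RNA polymerase produced barcoded ribozyme variants on sequenced MiSeq chips, and a hybridised Cy3 probe tracked them at 37 °C. Glucosamine-6-phosphate was flowed in at 40 μM to 10 mM in HEPES/KCl/Mg(OAc)2 buffer. kcat and KM were taken from weighted Michaelis–Menten fits of kobs values from exponential decay fits.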

[2] = variants of: B1; experiment: self-cleavage kobs at 2500 uM GlcN6P; higher = faster cleavage; RNA array
Procedure, shortened: as §1

[3] = variants of: B1; experiment: self-cleavage kobs at 160 uM GlcN6P; higher = faster cleavage; RNA array
Procedure, shortened: as §1

[4] = variants of: B1; experiment: self-cleavage kobs at 10000 uM GlcN6P; higher = faster cleavage; RNA array
Procedure, shortened: as §1

| Variant | self-cleavage kobs at 640 uM GlcN6P [1] [s⁻¹] | self-cleavage kobs at 2500 uM GlcN6P [2] [s⁻¹] | self-cleavage kobs at 160 uM GlcN6P [3] [s⁻¹] | self-cleavage kobs at 10000 uM GlcN6P [4] [s⁻¹] |
| --- | --- | --- | --- | --- |
| C34G G44U C50U C71U | < 1e-05 | < 1e-05 | – | – |
| C34G G51C A52U C61U | < 1e-05 | < 1e-05 | – | – |
| C34G G60A | < 1e-05 | < 1e-05 | < 1e-05 | – |
| C34G G63A | < 1e-05 | < 1e-05 | < 1e-05 | < 1e-05 |
| C34G G63U | < 1e-05 | < 1e-05 | < 1e-05 | < 1e-05 |
| C34G U49C | < 1e-05 | < 1e-05 | < 1e-05 | < 1e-05 |
| C34G U56G | < 1e-05 | – | – | < 1e-05 |
| C34G U57C | < 1e-05 | – | – | – |
| C34U A36C A42U | < 1e-05 | < 1e-05 | < 1e-05 | – |
| C34U A39C C50G | < 1e-05 | – | – | – |
| C34U A53C U56A U69C | < 1e-05 | – | – | – |
| C34U A64U G66C | < 1e-05 | – | – | – |
| C34U G35A C71U | < 1e-05 | – | < 1e-05 | – |
| C34U G35C C50U C67A | < 1e-05 | < 1e-05 | – | – |
| C34U G38U G43C | < 1e-05 | – | – | – |
| C34U G40C A42G U49G U55C | < 1e-05 | < 1e-05 | – | – |
| C34U G40C G62U | < 1e-05 | – | – | – |
| C34U G41C | < 1e-05 | < 1e-05 | < 1e-05 | < 1e-05 |
| C34U G41C U54C | < 1e-05 | < 1e-05 | < 1e-05 | – |
| C34U G44U A53G C61U | < 1e-05 | < 1e-05 | – | – |
| C34U G51A U57G U69G | 0.000271 ± 9.8e-05 | – | – | 0.000296 ± 7.8e-05 |
| C34U U46G C68G | 0.000568 ± 0.00025 | < 1e-05 | – | – |
| C34U U47G | < 1e-05 | – | < 1e-05 | – |

| Variant | self-cleavage kobs at 640 uM GlcN6P [1] [s⁻¹] | self-cleavage kobs at 2500 uM GlcN6P [2] [s⁻¹] | self-cleavage kobs at 160 uM GlcN6P [3] [s⁻¹] | self-cleavage kobs at 10000 uM GlcN6P [4] [s⁻¹] |
| --- | --- | --- | --- | --- |
| C34U U54C | < 1e-05 | < 1e-05 | < 1e-05 | – |
| G35A A36C U57C C61U | < 1e-05 | < 1e-05 | – | – |
| G35A A36U G41A C58A | < 1e-05 | < 1e-05 | – | – |
| G35A A39C C71A | < 1e-05 | – | – | – |
| G35A A52U C61A | < 1e-05 | – | – | – |
| G35A C67G | < 1e-05 | < 1e-05 | < 1e-05 | – |
| G35A G41A U45A | < 1e-05 | < 1e-05 | – | < 1e-05 |
| G35A G43U U49A G66U C71U | < 1e-05 | < 1e-05 | – | – |
| G35A G44A A64C | < 1e-05 | < 1e-05 | – | – |
| G35A G59U G62A | < 1e-05 | < 1e-05 | – | – |
| G35A U54C A64C | < 1e-05 | – | – | – |
| G35A U55G G63A A64G | < 1e-05 | – | – | – |
| G35A U57A | < 1e-05 | < 1e-05 | < 1e-05 | < 1e-05 |
| G35C A36G A39G A52U G63C U65C | < 1e-05 | < 1e-05 | < 1e-05 | – |
| G35C A36G U49A | < 1e-05 | < 1e-05 | < 1e-05 | – |
| G35C A36U | < 1e-05 | < 1e-05 | < 1e-05 | < 1e-05 |
| G35C A39C G43C U56A | < 1e-05 | – | – | – |
| G35C A39U G60U | < 1e-05 | < 1e-05 | – | – |
| G35C A48G A53G | < 1e-05 | – | – | – |
| G35C A52U C67U C68A | < 1e-05 | – | – | – |
| G35C A53G U57A | < 1e-05 | – | – | – |
| G35C A53U G60U | < 1e-05 | – | – | < 1e-05 |
| G35C C61G C68U | < 1e-05 | < 1e-05 | – | – |

| Variant | self-cleavage kobs at 640 uM GlcN6P [1] [s⁻¹] | self-cleavage kobs at 2500 uM GlcN6P [2] [s⁻¹] | self-cleavage kobs at 160 uM GlcN6P [3] [s⁻¹] | self-cleavage kobs at 10000 uM GlcN6P [4] [s⁻¹] |
| --- | --- | --- | --- | --- |
| G35C C67G C71G | < 1e-05 | – | – | – |
| G35C G37U | < 1e-05 | – | – | – |
| G35C G38A | < 1e-05 | < 1e-05 | – | – |
| G35C G38C G41A | < 1e-05 | < 1e-05 | < 1e-05 | – |
| G35C G38C G59U | < 1e-05 | – | – | – |
| G35C G40A G43U | < 1e-05 | – | – | – |
| G35C G40U A52U G63U | < 1e-05 | < 1e-05 | – | – |
| G35C G40U C70G | < 1e-05 | < 1e-05 | < 1e-05 | – |
| G35C G41A U49A C58G C71U | < 1e-05 | – | – | – |
| G35C G41U C58U G62A U69G | < 1e-05 | – | – | < 1e-05 |
| G35C G43U A52U C61U | < 1e-05 | < 1e-05 | – | – |
| G35C G44A U56A | < 1e-05 | < 1e-05 | – | – |
| G35C G51A | < 1e-05 | – | – | – |
| G35C G59U G63U C70U | < 1e-05 | – | – | – |
| G35C G62A A64G | < 1e-05 | – | < 1e-05 | – |
| G35C G66U | < 1e-05 | < 1e-05 | < 1e-05 | – |
| G35C U49G C71A | < 1e-05 | – | – | – |
| G35U A36C A39G A48U C50U | < 1e-05 | – | – | < 1e-05 |
| G35U A39U | < 1e-05 | < 1e-05 | < 1e-05 | – |
| G35U A42U U54A A64G | < 1e-05 | < 1e-05 | – | – |
| G35U A48G C50U | < 1e-05 | – | – | < 1e-05 |
| G35U A53U | < 1e-05 | – | – | – |
| G35U C50U A53U | < 1e-05 | – | – | – |

| Variant | self-cleavage kobs at 640 uM GlcN6P [1] [s⁻¹] | self-cleavage kobs at 2500 uM GlcN6P [2] [s⁻¹] | self-cleavage kobs at 160 uM GlcN6P [3] [s⁻¹] | self-cleavage kobs at 10000 uM GlcN6P [4] [s⁻¹] |
| --- | --- | --- | --- | --- |
| G35U G37C | < 1e-05 | < 1e-05 | < 1e-05 | – |
| G35U G38C G40C U54C | < 1e-05 | – | – | – |
| G35U G38C G66U | < 1e-05 | – | – | – |
| G35U G40A A52U | < 1e-05 | < 1e-05 | – | – |
| G35U G40U A42G G59U U65A U69G | < 1e-05 | < 1e-05 | – | – |
| G35U G43U G51C U55G C71A | < 1e-05 | < 1e-05 | – | < 1e-05 |
| G35U G59A A64G C71U | < 1e-05 | – | – | – |
| G35U G66A | < 1e-05 | < 1e-05 | < 1e-05 | < 1e-05 |
| G35U U45G C58U C67U | < 1e-05 | < 1e-05 | – | – |
| G35U U47A G63A | < 1e-05 | < 1e-05 | – | – |
| G35U U47C | < 1e-05 | < 1e-05 | < 1e-05 | < 1e-05 |
| G35U U47C C50A G51C C58A G63A U69A | < 1e-05 | – | – | – |
| G35U U47G | < 1e-05 | < 1e-05 | < 1e-05 | – |
| G35U U57A | < 1e-05 | – | – | < 1e-05 |
| G35U U57A G59C C70G | < 1e-05 | < 1e-05 | – | – |
| A36C A39C | < 1e-05 | – | < 1e-05 | < 1e-05 |
| A36C A39C A52U | < 1e-05 | – | – | – |
| A36C A39U U54A C67G | < 1e-05 | < 1e-05 | – | – |
| A36C A42U G44C A52U | < 1e-05 | – | – | – |
| A36C G37A A48U | < 1e-05 | – | – | – |
| A36C G38A | < 1e-05 | – | < 1e-05 | < 1e-05 |
| A36C G41C U47C | < 1e-05 | – | – | – |
| A36C G60C | < 1e-05 | – | – | – |

| Variant | self-cleavage kobs at 640 uM GlcN6P [1] [s⁻¹] | self-cleavage kobs at 2500 uM GlcN6P [2] [s⁻¹] | self-cleavage kobs at 160 uM GlcN6P [3] [s⁻¹] | self-cleavage kobs at 10000 uM GlcN6P [4] [s⁻¹] |
| --- | --- | --- | --- | --- |
| A36C U45C | < 1e-05 | < 1e-05 | < 1e-05 | – |
| A36C U46G A52G G60U | < 1e-05 | < 1e-05 | < 1e-05 | – |
| A36C U46G U54A U55G | < 1e-05 | – | – | – |
| A36C U47G G51C | < 1e-05 | – | – | – |
| A36C U54G A64G | < 1e-05 | – | – | – |
| A36C U56A | < 1e-05 | < 1e-05 | < 1e-05 | – |
| A36C U56G | < 1e-05 | – | < 1e-05 | – |
| A36G A39C U47G | < 1e-05 | < 1e-05 | – | < 1e-05 |
| A36G A42C | < 1e-05 | < 1e-05 | < 1e-05 | < 1e-05 |
| A36G A42G U54A G59U | < 1e-05 | < 1e-05 | – | < 1e-05 |
| A36G A42U C71U | < 1e-05 | < 1e-05 | – | – |
| A36G A64U C71U | < 1e-05 | < 1e-05 | < 1e-05 | – |
| A36G G38U C50A G62A | < 1e-05 | – | – | – |
| A36G G38U U57A G59C | < 1e-05 | < 1e-05 | – | – |
| A36G G41C | < 1e-05 | – | – | – |
| A36G G43U | < 1e-05 | – | – | < 1e-05 |
| A36G G43U A53C | < 1e-05 | – | < 1e-05 | – |
| A36G G44U C50A A52U C67U | < 1e-05 | < 1e-05 | – | – |
| A36G G51A G62C | < 1e-05 | < 1e-05 | – | – |
| A36G U55G C67G | < 1e-05 | – | – | – |
| A36G U69G | 4.85e-05 ± 1.9e-05 | – | 3.18e-05 ± 1.6e-05 | – |
| A36U A39U C71U | < 1e-05 | – | – | – |
| A36U A39U U45C C58U | < 1e-05 | < 1e-05 | – | – |
